# Measured values taken from the supplement of paper PMC8728848.
# Some of the results follow.
# B1: Banana lectin (Musa acuminata) (protein)
# chain: MNGAIKVGAWGGNGGSAFDMGPAYRIISVKIFSGDVVDGVDVTFTYYGKTETRHYGGSGGTPHEIVLQEGEYLVGMAGEVANYTGAVVLGKLGFSTNKKAYGPFGNTGGTPFSLPIAAGKISGFFGRGGKFLDAIGVYLEPLEHHHHHH
# Columns and labels:
# Assay in all cases: glycan array binding signal (z-score within array); higher = stronger binding
# Settings in all cases: glycan notation: IUPAC condensed, linker removed; mutation: H84T
# [1] = target: Gal(b1-4)GlcNAc(b1-3)Gal(b1-4)GlcNAc(b1-2)Man(a1-3)[Gal(b1-4)GlcNAc(b1-3)Gal(b1-4)GlcNAc(b1-2)Man(a1-6)]Man(b1-4)GlcNAc(b1-4)[Fuc(a1-6)]GlcNAc
# In short: (§1)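 The binding signal is a Z-score computed within each array and averaged over linkers. Arrays of the same protein sequence at different concentrations or buffers were also averaged together. Data originate from 3228 arrays in the Consortium for Functional Glycomics database, kept only where the protein sequence was available.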
# [2] = target: Gal(b1-4)GlcNAc(b1-3)Gal(b1-4)GlcNAc(b1-2)[Gal(b1-4)GlcNAc(b1-3)Gal(b1-4)GlcNAc(b1-6)]Man(a1-6)[Gal(b1-4)GlcNAc(b1-3)Gal(b1-4)GlcNAc(b1-2)Man(a1-3)]Man(b1-4)GlcNAc(b1-4)GlcNAc
# In short: as §1
# [3] = target: Gal(b1-4)GlcNAc(b1-3)Gal(b1-4)GlcNAc(b1-2)[Gal(b1-4)GlcNAc(b1-3)Gal(b1-4)GlcNAc(b1-6)]Man(a1-6)[Gal(b1-4)GlcNAc(b1-3)Gal(b1-4)GlcNAc(b1-2)Man(a1-3)]Man(b1-4)GlcNAc(b1-4)[Fuc(a1-6)]GlcNAc
# In short: as §1
# [4] = target: Gal(b1-4)GlcNAc(b1-3)Gal(b1-4)GlcNAc(b1-3)Gal(b1-4)GlcNAc
# In short: as §1
# [5] = target: Gal(b1-4)GlcNAc(b1-3)Gal(b1-4)GlcNAc(b1-3)Gal(b1-4)GlcNAc(b1-2)Man(a1-3)[Gal(b1-4)GlcNAc(b1-3)Gal(b1-4)GlcNAc(b1-3)Gal(b1-4)GlcNAc(b1-2)Man(a1-6)]Man(b1-4)GlcNAc(b1-4)GlcNAc
# In short: as §1
# [6] = target: Gal(b1-4)GlcNAc(b1-3)Gal(b1-4)GlcNAc(b1-3)Gal(b1-4)GlcNAc(b1-2)Man(a1-3)[Gal(b1-4)GlcNAc(b1-3)Gal(b1-4)GlcNAc(b1-3)Gal(b1-4)GlcNAc(b1-2)Man(a1-6)]Man(b1-4)GlcNAc(b1-4)[Fuc(a1-6)]GlcNAc
# In short: as §1
# [7] = target: Gal(b1-4)GlcNAc(b1-3)Gal(b1-4)GlcNAc(b1-3)Gal(b1-4)GlcNAc(b1-2)[Gal(b1-4)GlcNAc(b1-3)Gal(b1-4)GlcNAc(b1-3)Gal(b1-4)GlcNAc(b1-6)]Man(a1-6)[Gal(b1-4)GlcNAc(b1-3)Gal(b1-4)GlcNAc(b1-3)Gal(b1-4)GlcNAc(b1-2)Man(a1-3)]Man(b1-4)GlcNAc(b1-4)[Fuc(a1-6)]GlcNAc
# In short: as §1
# [8] = target: Gal(b1-4)GlcNAc(b1-3)Gal(b1-4)GlcNAc(b1-3)Gal(b1-4)GlcNAc(b1-3)Gal(b1-4)GlcNAc(b1-2)Man(a1-3)[Gal(b1-4)GlcNAc(b1-3)Gal(b1-4)GlcNAc(b1-3)Gal(b1-4)GlcNAc(b1-3)Gal(b1-4)GlcNAc(b1-2)Man(a1-6)]Man(b1-4)GlcNAc(b1-4)GlcNAc
# In short: as §1
# [9] = target: Gal(b1-4)GlcNAc(b1-3)Gal(b1-4)GlcNAc(b1-3)Gal(b1-4)GlcNAc(b1-3)Gal(b1-4)GlcNAc(b1-2)Man(a1-3)[Gal(b1-4)GlcNAc(b1-3)Gal(b1-4)GlcNAc(b1-3)Gal(b1-4)GlcNAc(b1-3)Gal(b1-4)GlcNAc(b1-2)Man(a1-6)]Man(b1-4)GlcNAc(b1-4)[Fuc(a1-6)]GlcNAc
# In short: as §1
# [10] = target: Gal(b1-4)GlcNAc(b1-3)Gal(b1-4)GlcNAc(b1-3)Gal(b1-4)GlcNAc(b1-3)Gal(b1-4)GlcNAc(b1-2)[Gal(b1-4)GlcNAc(b1-3)Gal(b1-4)GlcNAc(b1-3)Gal(b1-4)GlcNAc(b1-3)Gal(b1-4)GlcNAc(b1-6)]Man(a1-6)[Gal(b1-4)GlcNAc(b1-3)Gal(b1-4)GlcNAc(b1-3)Gal(b1-4)GlcNAc(b1-3)Gal(b1-4)GlcNAc(b1-2)Man(a1-3)]Man(b1-4)GlcNAc(b1-4)[Fuc(a1-6)]GlcNAc
# In short: as §1
# [11] = target: Gal(b1-4)GlcNAc(b1-3)Gal(b1-4)GlcNAc(b1-3)Gal(b1-4)GlcNAc(b1-3)Gal(b1-4)GlcNAc(b1-3)Gal(b1-4)GlcNAc(b1-2)Man(a1-3)[Gal(b1-4)GlcNAc(b1-3)Gal(b1-4)GlcNAc(b1-3)Gal(b1-4)GlcNAc(b1-3)Gal(b1-4)GlcNAc(b1-3)Gal(b1-4)GlcNAc(b1-2)Man(a1-6)]Man(b1-4)GlcNAc(b1-4)GlcNAc
# In short: as §1
# [12] = target: Gal(b1-4)GlcNAc(b1-3)Gal(b1-4)GlcNAc(b1-3)Gal(b1-4)GlcNAc(b1-3)Gal(b1-4)GlcNAc(b1-3)Gal(b1-4)GlcNAc(b1-2)Man(a1-3)[Gal(b1-4)GlcNAc(b1-3)Gal(b1-4)GlcNAc(b1-3)Gal(b1-4)GlcNAc(b1-3)Gal(b1-4)GlcNAc(b1-3)Gal(b1-4)GlcNAc(b1-2)Man(a1-6)]Man(b1-4)GlcNAc(b1-4)[Fuc(a1-6)]GlcNAc
# In short: as §1
# [13] = target: Gal(b1-4)GlcNAc(b1-3)Gal(b1-4)GlcNAc(b1-3)Gal(b1-4)GlcNAc(b1-3)Gal(b1-4)GlcNAc(b1-3)Gal(b1-4)GlcNAc(b1-2)[Gal(b1-4)GlcNAc(b1-3)Gal(b1-4)GlcNAc(b1-3)Gal(b1-4)GlcNAc(b1-3)Gal(b1-4)GlcNAc(b1-3)Gal(b1-4)GlcNAc(b1-6)]Man(a1-6)[Gal(b1-4)GlcNAc(b1-3)Gal(b1-4)GlcNAc(b1-3)Gal(b1-4)GlcNAc(b1-3)Gal(b1-4)GlcNAc(b1-3)Gal(b1-4)GlcNAc(b1-2)Man(a1-3)]Man(b1-4)GlcNAc(b1-4)[Fuc(a1-6)]GlcNAc
# In short: as §1
# [14] = target: Gal(b1-4)GlcNAc(b1-3)Gal(b1-4)GlcNAc(b1-3)Gal(b1-4)GlcNAc(b1-3)Gal(b1-4)GlcNAc(b1-3)Gal(b1-4)GlcNAc(b1-3)Gal(b1-4)GlcNAc(b1-2)Man(a1-3)[Gal(b1-4)GlcNAc(b1-3)Gal(b1-4)GlcNAc(b1-3)Gal(b1-4)GlcNAc(b1-3)Gal(b1-4)GlcNAc(b1-3)Gal(b1-4)GlcNAc(b1-3)Gal(b1-4)GlcNAc(b1-2)Man(a1-6)]Man(b1-4)GlcNAc(b1-4)GlcNAc
# In short: as §1
# [15] = target: Gal(b1-4)GlcNAc(b1-3)Gal(b1-4)GlcNAc(b1-3)GalNAc
# In short: as §1
# [16] = target: Gal(b1-4)GlcNAc(b1-3)Gal(b1-4)GlcNAc(b1-3)[Gal(b1-4)GlcNAc(b1-3)Gal(b1-4)GlcNAc(b1-6)]GalNAc
# In short: as §1
# [17] = target: Gal(b1-4)GlcNAc(b1-3)Gal(b1-4)GlcNAc(b1-6)[Gal(b1-3)]GalNAc
# In short: as §1
# [18] = target: Gal(b1-4)GlcNAc(b1-3)Gal(b1-4)[Fuc(a1-3)]GlcNAc(b1-3)Gal(b1-4)[Fuc(a1-3)]GlcNAc
# In short: as §1
# [19] = target: Gal(b1-4)GlcNAc(b1-3)GalNAc
# In short: as §1
# [20] = target: Gal(b1-4)GlcNAc(b1-3)[Fuc(a1-3)GlcNAc(b1-6)]Gal(b1-4)Glc
# In short: as §1
# [21] = target: Gal(b1-4)GlcNAc(b1-3)[Gal(b1-4)GlcNAc(b1-6)]Gal(b1-4)GlcNAc
# In short: as §1
# [22] = target: Gal(b1-4)GlcNAc(b1-3)[GlcNAc(b1-6)]Gal(b1-4)GlcNAc
# In short: as §1
# [23] = target: Gal(b1-4)GlcNAc(b1-6)Gal(b1-4)GlcNAc
# In short: as §1
# [24] = target: Gal(b1-4)GlcNAc(b1-6)GalNAc
# In short: as §1
# [25] = target: Gal(b1-4)GlcNAc(b1-6)[Gal(b1-3)]GalNAc
# In short: as §1
# [26] = target: Gal(b1-4)GlcNAc(b1-6)[Gal(b1-4)GlcNAc(b1-3)]GalNAc
# In short: as §1
# Gal(b1-4)GlcNAc6P = target: Gal(b1-4)GlcNAc6P
# In short: as §1
# Gal(b1-6)Gal = target: Gal(b1-6)Gal
# In short: as §1
# Gal3S(b1-3)GalNAc = target: Gal3S(b1-3)GalNAc
# In short: as §1
# Gal3S(b1-3)GlcNAc = target: Gal3S(b1-3)GlcNAc
# In short: as §1
# [27] = target: Gal3S(b1-3)[Fuc(a1-4)]GlcNAc
# In short: as §1
# Gal3S(b1-4)Glc = target: Gal3S(b1-4)Glc
# In short: as §1
# Gal3S(b1-4)Glc6S = target: Gal3S(b1-4)Glc6S
# In short: as §1
# Gal3S(b1-4)GlcNAc = target: Gal3S(b1-4)GlcNAc
# In short: as §1
# [28] = target: Gal3S(b1-4)[Fuc(a1-3)]Glc6S
# In short: as §1
# [29] = target: Gal3S(b1-4)[Fuc(a1-3)]GlcNAc
# In short: as §1
# [30] = target: Gal3S(b1-4)[Fuc(a1-3)]GlcNAc6S
# In short: as §1
# Gal3S4S(b1-4)GlcNAc = target: Gal3S4S(b1-4)GlcNAc
# In short: as §1
# Gal3S6S(b1-4)GlcNAc = target: Gal3S6S(b1-4)GlcNAc
# In short: as §1
# Gal3S6S(b1-4)GlcNAc6S = target: Gal3S6S(b1-4)GlcNAc6S
# In short: as §1
# Gal4S(b1-4)GlcNAc = target: Gal4S(b1-4)GlcNAc
# In short: as §1
# Gal4S6S(b1-4)GlcNAc = target: Gal4S6S(b1-4)GlcNAc
# In short: as §1
# Gal6P(b1-4)GlcNAc = target: Gal6P(b1-4)GlcNAc
# In short: as §1
# Gal6S(b1-3)GlcNAc = target: Gal6S(b1-3)GlcNAc
# In short: as §1
# Gal6S(b1-3)GlcNAc6S = target: Gal6S(b1-3)GlcNAc6S
# In short: as §1
binder,measurement,setting,value
B1,glycan array binding signal (z-score),[1],-0.145
same,glycan array binding signal (z-score),[2],-0.045
same,glycan array binding signal (z-score),[3],-0.099
same,glycan array binding signal (z-score),[4],-0.166
same,glycan array binding signal (z-score),[5],-0.133
same,glycan array binding signal (z-score),[6],-0.097
same,glycan array binding signal (z-score),[7],-0.153
same,glycan array binding signal (z-score),[8],-0.165
same,glycan array binding signal (z-score),[9],-0.167
same,glycan array binding signal (z-score),[10],-0.109
same,glycan array binding signal (z-score),[11],-0.155
same,glycan array binding signal (z-score),[12],-0.129
same,glycan array binding signal (z-score),[13],-0.137
same,glycan array binding signal (z-score),[14],-0.092
same,glycan array binding signal (z-score),[15],-0.152
same,glycan array binding signal (z-score),[16],-0.141
same,glycan array binding signal (z-score),[17],-0.132
same,glycan array binding signal (z-score),[18],-0.182
same,glycan array binding signal (z-score),[19],-0.189
same,glycan array binding signal (z-score),[20],-0.197
same,glycan array binding signal (z-score),[21],-0.171
same,glycan array binding signal (z-score),[22],-0.216
same,glycan array binding signal (z-score),[23],-0.206
same,glycan array binding signal (z-score),[24],-0.152
same,glycan array binding signal (z-score),[25],-0.173
same,glycan array binding signal (z-score),[26],-0.166
same,glycan array binding signal (z-score),Gal(b1-4)GlcNAc6P,-0.137
same,glycan array binding signal (z-score),Gal(b1-6)Gal,-0.198
same,glycan array binding signal (z-score),Gal3S(b1-3)GalNAc,-0.183
same,glycan array binding signal (z-score),Gal3S(b1-3)GlcNAc,-0.162
same,glycan array binding signal (z-score),[27],-0.185
same,glycan array binding signal (z-score),Gal3S(b1-4)Glc,-0.169
same,glycan array binding signal (z-score),Gal3S(b1-4)Glc6S,-0.165
same,glycan array binding signal (z-score),Gal3S(b1-4)GlcNAc,-0.179
same,glycan array binding signal (z-score),[28],-0.184
same,glycan array binding signal (z-score),[29],-0.171
same,glycan array binding signal (z-score),[30],-0.177
same,glycan array binding signal (z-score),Gal3S4S(b1-4)GlcNAc,-0.164
same,glycan array binding signal (z-score),Gal3S6S(b1-4)GlcNAc,-0.154
same,glycan array binding signal (z-score),Gal3S6S(b1-4)GlcNAc6S,-0.119
same,glycan array binding signal (z-score),Gal4S(b1-4)GlcNAc,-0.19
same,glycan array binding signal (z-score),Gal4S6S(b1-4)GlcNAc,-0.187
same,glycan array binding signal (z-score),Gal6P(b1-4)GlcNAc,-0.197
same,glycan array binding signal (z-score),Gal6S(b1-3)GlcNAc,-0.185
same,glycan array binding signal (z-score),Gal6S(b1-3)GlcNAc6S,-0.174
